Where a name gives a salt, the structure may show the parent alone. At least one read-out could not be matched to a standard name with certainty.
Experiments:
[1] = Electrokinetic cross-membrane isolation (ECMI) of basic drugs; recovery in acceptor solution by capillary electrophoresis; assay type: physicochemical; details: for Recovery (%) DEHP-content % (w/w) 5%: 5% DEHP in NPOE; for Recovery (%) DEHP-content % (w/w) 5% / Recovery (%) 5% TEHP / Recovery (%) DEHP-content % (w/w) 10% / Recovery (%) 10% TEHP / Recovery (%) DEHP-content % (w/w) 25% / Recovery (%) 10% DEHP + 10% TEHP / Recovery (%) 25% DEHP + 25% TEHP / Recovery (%) DEHP-content % (w/w) 0% / Recovery (%) 0% TEHP / Recovery (%) 1-Isopropyl Nitrobenzene / Recovery (%) 2-Nitrophenyl octyl ether / Recovery (%) Nitrobenzene / Recovery (%) 0% DEHP + 0% TEHP: sample pH 2.0 HCl; for Recovery (%) DEHP-content % (w/w) 5% / Recovery (%) DEHP-content % (w/w) 10% / Recovery (%) DEHP-content % (w/w) 25% / Recovery (%) DEHP-content % (w/w) 0%: 7 mm vial; for Recovery (%) 5% TEHP: 5% TEHP in NPOE; for Recovery (%) DEHP-content % (w/w) 10%: 10% DEHP in NPOE; for Recovery (%) 10% TEHP: 10% TEHP in NPOE; for Recovery (%) DEHP-content % (w/w) 25%: 25% DEHP in NPOE; for Recovery (%) 10% DEHP + 10% TEHP / Recovery (%) 25% DEHP + 25% TEHP: in NPOE; for Recovery (%) DEHP-content % (w/w) 0%: 0% DEHP in NPOE; for Recovery (%) 0% TEHP: 0% TEHP in NPOE; for Recovery (%) 1-Isopropyl Nitrobenzene / Recovery (%) 2-Nitrophenyl octyl ether / Recovery (%) Nitrobenzene: 1 V; for Recovery (%) 1-Isopropyl Nitrobenzene: organic phase 1-isopropyl nitrobenzene; for Recovery (%) 2-Nitrophenyl octyl ether: organic phase NPOE; for Recovery (%) Nitrobenzene: organic phase nitrobenzene; for Recovery as function of ECMI time: FIG. 4; for Recovery (%) 0% DEHP + 0% TEHP: NPOE organic phase; for Recovery (%): optimal ECMI: NPOE, sample and acceptor 10 mM HCl
[2] = Cross-membrane extraction without voltage (passive diffusion); assay type: physicochemical; details: no voltage; sample pH approximately 13, acceptor pH 2; 5 min; NPOE (FIG. 3c)
[3] = NPOE + 5% (w/w) DEHP + 10% (w/w) TEHP, 5 minutes, donor 1 μg/ml
[4] = NPOE membrane, donor solution 1 μg/ml of each compound
[5] = acceptor solution 1 mM HCl, NPOE membrane
[6] = acceptor solution 10 mM HCOOH, NPOE membrane
[7] = acceptor solution 10 mM HCl, NPOE membrane
[8] = acceptor solution 10 mM phosphate pH 6.0, NPOE membrane
[9] = acceptor solution 10 mM phosphate pH 7.0, NPOE membrane
[10] = acceptor solution 100 mM HCl, NPOE membrane
[11] = liquid membrane 1-octanol, 300 V, 5 min, 5.2 mm vial
[12] = liquid membrane 2-nitrophenyl octyl ether + 5% di(2-ethylhexyl) phosphate, 300 V, 5 min, 5.2 mm vial
[13] = liquid membrane 2-nitrophenyl octyl ether, sample 10 mM HCl, acceptor 10 mM HCl, 300 V, 5 min, 1200 rpm, 5.2 mm vial
[14] = liquid membrane peppermint oil, 300 V, 5 min, 5.2 mm vial
[15] = sample solution 1 mM HCl, NPOE membrane
[16] = sample solution 10 mM HCOOH, NPOE membrane
[17] = sample solution 10 mM HCl, NPOE membrane
[18] = sample solution 10 mM phosphate pH 6.0, NPOE membrane
[19] = sample solution 10 mM phosphate pH 7.0, NPOE membrane
[20] = sample solution 10 mM phosphate pH 8.0, NPOE membrane
[21] = sample solution 100 mM HCl, NPOE membrane

SMILES: CC(N)Cc1ccccc1.O=S(=O)(O)O (stereo not shown) [Amfetamine, amphetamine sulphate]
- Recovery (%) DEHP-content % (w/w) 5% ([1]; acceptor 10 mM HCl, 300 V): 30%
- Recovery (%) 5% TEHP ([1]; acceptor 10 mM HCl, 300 V): 17%
- Recovery (%) DEHP-content % (w/w) 10% ([1]; acceptor 10 mM HCl, 300 V): 38%
- Recovery (%) 10% TEHP ([1]; acceptor 10 mM HCl, 300 V): 44%
- Recovery (%) DEHP-content % (w/w) 25% ([1]; acceptor 10 mM HCl, 300 V): 24%
- Recovery [1, 3]: 85
- Recovery [1, 4]: below 1%
- Recovery (%) 10% DEHP + 10% TEHP ([1]; acceptor 10 mM HCl, 300 V): 69%
- Recovery (%) 25% DEHP + 25% TEHP ([1]; acceptor 10 mM HCl, 300 V): 78%

SMILES: CN(C)C(=O)C(CCN1CCC(O)(c2ccc(Cl)cc2)CC1)(c1ccccc1)c1ccccc1 [Loperamide, loperamide hydrochloride]
- Recovery (%) DEHP-content % (w/w) 0% ([1]; acceptor 10 mM HCl, 300 V): 73%
- Recovery (%) 0% TEHP ([1]; acceptor 10 mM HCl, 300 V): 73%
- Recovery (%) 1-Isopropyl Nitrobenzene ([1]; acceptor 10 mM HCl): 36%
- Recovery (%) 2-Nitrophenyl octyl ether ([1]; acceptor 10 mM HCl): 8%
- Recovery (%) Nitrobenzene ([1]; acceptor 10 mM HCl): 16%
- Recovery (%) 5% TEHP ([1]; acceptor 10 mM HCl, 300 V): 53%
- Recovery as function of ECMI time ([1]; NPOE, 300 V): Increased very rapidly with extraction time
- Recovery (%) 0% DEHP + 0% TEHP ([1]; acceptor 10 mM HCl, 300 V): 73%
- Recovery [1, 5]: 22%
- Recovery [1, 6]: 61%
- Recovery [1, 7]: 76%
- Recovery [1, 8]: 15%
- Recovery [1, 9]: 4%
- Recovery [1, 10]: 80%
- Recovery (%) 25% DEHP + 25% TEHP ([1]; acceptor 10 mM HCl, 300 V): 4%
- Recovery [1, 11]: 7%
- Recovery [1, 12]: 4%
- Recovery [1, 13]: 76%
- Recovery [1, 14]: 79%
- Recovery (%) ([1]; 300 V, 5 min): 76%
- Recovery [1, 15]: 65%
- Recovery [1, 16]: 73%
- Recovery [1, 17]: 76%
- Recovery [1, 18]: 57%
- Recovery [1, 19]: 49%
- Recovery [1, 20]: 50%
- Recovery [1, 21]: 68%
- Recovery without voltage [2]: not detected

SMILES: CN[C@@H](C)Cc1ccccc1 [Metamfetamine, methamphetamine sulphate]
- Recovery (%) 1-Isopropyl Nitrobenzene ([1]; acceptor 10 mM HCl): 26%
- Recovery (%) Nitrobenzene ([1]; acceptor 10 mM HCl): 7%
- Recovery (%) DEHP-content % (w/w) 5% ([1]; acceptor 10 mM HCl, 300 V): 31%
- Recovery (%) 5% TEHP ([1]; acceptor 10 mM HCl, 300 V): 53%
- Recovery (%) DEHP-content % (w/w) 10% ([1]; acceptor 10 mM HCl, 300 V): 30%
- Recovery (%) 10% TEHP ([1]; acceptor 10 mM HCl, 300 V): 72%
- Recovery (%) DEHP-content % (w/w) 25% ([1]; acceptor 10 mM HCl, 300 V): 12%
- Recovery [1, 3]: 77
- Recovery [1, 4]: 11%
- Recovery (%) 10% DEHP + 10% TEHP ([1]; acceptor 10 mM HCl, 300 V): 64%
- Recovery (%) 25% DEHP + 25% TEHP ([1]; acceptor 10 mM HCl, 300 V): 60%

SMILES: CCC(=O)C(CC(C)N(C)C)(c1ccccc1)c1ccccc1 (stereo not shown) [Methadone, methadone hydrochloride]
- Recovery (%) DEHP-content % (w/w) 0% ([1]; acceptor 10 mM HCl, 300 V): 78%
- Recovery (%) 0% TEHP ([1]; acceptor 10 mM HCl, 300 V): 78%
- Recovery ([1]; 1 μg/ml from 10 mM HCl containing 10 μg/ml pethidine): 80%
- Recovery ([1]; 1 μg/ml from 10 mM HCl containing 2% (w/w) NaCl): 83%
- Recovery ([1]; 1 μg/ml from pure 10 mM HCl): 77%
- Recovery (%) 1-Isopropyl Nitrobenzene ([1]; acceptor 10 mM HCl): 27%
- Recovery (%) 2-Nitrophenyl octyl ether ([1]; acceptor 10 mM HCl): 8%
- Recovery (%) Nitrobenzene ([1]; acceptor 10 mM HCl): 50%
- Recovery (%) DEHP-content % (w/w) 5% ([1]; acceptor 10 mM HCl, 300 V): 5%
- Recovery (%) 5% TEHP ([1]; acceptor 10 mM HCl, 300 V): 91%
- Recovery (%) DEHP-content % (w/w) 10% ([1]; acceptor 10 mM HCl, 300 V): 9%
- Recovery (%) 10% TEHP ([1]; acceptor 10 mM HCl, 300 V): 80%
- Recovery (%) DEHP-content % (w/w) 25% ([1]; acceptor 10 mM HCl, 300 V): 4%
- Recovery as function of ECMI time ([1]; NPOE, 300 V): Increased very rapidly with extraction time
- Recovery (%) 0% DEHP + 0% TEHP ([1]; acceptor 10 mM HCl, 300 V): 78%
- Recovery [1, 5]: 31%
- Recovery [1, 6]: 63%
- Recovery [1, 7]: 79%
- Recovery [1, 8]: 26%
- Recovery [1, 9]: 9%
- Recovery [1, 10]: 83%
- Recovery (%) 10% DEHP + 10% TEHP ([1]; acceptor 10 mM HCl, 300 V): 39%
- Recovery (%) 25% DEHP + 25% TEHP ([1]; acceptor 10 mM HCl, 300 V): 25%
- Recovery [1, 11]: 7%
- Recovery [1, 12]: 26%
- Recovery [1, 13]: 79%
- Recovery [1, 14]: 73%
- Recovery (%) ([1]; 300 V, 5 min): 79%
- Recovery [1, 15]: 71%
- Recovery [1, 16]: 76%
- Recovery [1, 17]: 79%
- Recovery [1, 18]: 73%
- Recovery [1, 19]: 71%
- Recovery [1, 20]: 72%
- Recovery [1, 21]: 78%

SMILES: CCOC(=O)C1(c2ccccc2)CCN(C)CC1 [Pethidine, Pethidine hydrochloride]
- Recovery (%) DEHP-content % (w/w) 0% ([1]; acceptor 10 mM HCl, 300 V): 16%
- Recovery (%) 0% TEHP ([1]; acceptor 10 mM HCl, 300 V): 16%
- Recovery (%) Nitrobenzene ([1]; acceptor 10 mM HCl): 28%
- Recovery (%) DEHP-content % (w/w) 5% ([1]; acceptor 10 mM HCl, 300 V): 30%
- Recovery (%) 5% TEHP ([1]; acceptor 10 mM HCl, 300 V): 78%
- Recovery (%) DEHP-content % (w/w) 10% ([1]; acceptor 10 mM HCl, 300 V): 33%
- Recovery (%) 10% TEHP ([1]; acceptor 10 mM HCl, 300 V): 88%
- Recovery (%) DEHP-content % (w/w) 25% ([1]; acceptor 10 mM HCl, 300 V): 9%
- Recovery as a function of applied electrical potential difference ([1]; FIG. 5, 10 V to 300 V, NPOE, 5 min): relatively high recoveries were obtained with only 10 V
- Recovery (%) 0% DEHP + 0% TEHP ([1]; acceptor 10 mM HCl, 300 V): 16%
- Recovery [1, 5]: 44%
- Recovery [1, 6]: 56%
- Recovery [1, 7]: 70%
- Recovery [1, 8]: 24%
- Recovery [1, 9]: 19%
- Recovery [1, 10]: 60%
- Recovery (%) 10% DEHP + 10% TEHP ([1]; acceptor 10 mM HCl, 300 V): 61%
- Recovery (%) 25% DEHP + 25% TEHP ([1]; acceptor 10 mM HCl, 300 V): 63%
- Recovery [1, 11]: 3%
- Recovery [1, 12]: 57%
- Recovery [1, 13]: 70%
- Recovery [1, 14]: 13%
- Recovery (%) ([1]; 300 V, 5 min): 70%
- Recovery [1, 15]: 64%
- Recovery [1, 16]: 68%
- Recovery [1, 17]: 70%
- Recovery [1, 18]: 61%
- Recovery [1, 19]: 63%
- Recovery [1, 20]: 63%
- Recovery [1, 21]: 72%

SMILES: c1ccc(C2(N3CCCCC3)CCCCC2)cc1 [Phencyclidine, phencyclidine]
- Recovery (%) DEHP-content % (w/w) 0% ([1]; acceptor 10 mM HCl, 300 V): 83%
- Recovery (%) 0% TEHP ([1]; acceptor 10 mM HCl, 300 V): 83%
- Recovery (%) DEHP-content % (w/w) 5% ([1]; acceptor 10 mM HCl, 300 V): 13%
- Recovery (%) 5% TEHP ([1]; acceptor 10 mM HCl, 300 V): 71%
- Recovery (%) 10% TEHP ([1]; acceptor 10 mM HCl, 300 V): 95%
- Recovery (%) 0% DEHP + 0% TEHP ([1]; acceptor 10 mM HCl, 300 V): 83%
- Recovery (%) 10% DEHP + 10% TEHP ([1]; acceptor 10 mM HCl, 300 V): 43%
- Recovery (%) 25% DEHP + 25% TEHP ([1]; acceptor 10 mM HCl, 300 V): 23%

From patent US8317991B2, “Process for electrokinetic migration through liquid membranes” (priority 2005, dated 2012)
